This note sets out measurements from article PMC12136788.

The chains are these.
T1: UNK ZnF1-6 (called full-length) (human, UniProt Q9C0B0 30-357)
T1 sequence: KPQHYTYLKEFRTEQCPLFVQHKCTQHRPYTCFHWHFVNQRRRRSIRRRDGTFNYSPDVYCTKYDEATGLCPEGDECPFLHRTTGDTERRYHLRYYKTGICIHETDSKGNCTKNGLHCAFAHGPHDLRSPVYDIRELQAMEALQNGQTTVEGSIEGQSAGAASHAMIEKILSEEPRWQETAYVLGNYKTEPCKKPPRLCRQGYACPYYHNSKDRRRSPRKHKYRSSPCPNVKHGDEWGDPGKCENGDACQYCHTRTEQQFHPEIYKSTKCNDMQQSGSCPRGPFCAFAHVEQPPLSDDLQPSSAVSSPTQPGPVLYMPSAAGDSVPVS

B1: chrX:119243474:119243703:+|3pUTR|ENSG00000101856|msi1|total|mutant (ssRNA)
RNA: GGGAGUUCUACAGUCCGACGAUCGGUAUUUCCCAAAACAGGUAAAAAUCUUAAAUGUGCACCAAGAGCAAAGGAUCAACUUUCCGUCAUGAUGUUCUGUAAAGACAACAAAUCCCUUUUUUUUUCUCAAUUGACUUAACUGCACAACAGAGGAUUGAGCAUCA
B2: chr17:47658542:47658643:+|CDS|ENSG00000108424|unk|FALSE|unique (ssRNA)
RNA: GGGAGUUCUACAGUCCGACGAUCGAUUCUGACUGCCAUAAUCCAGGGGAUGAGGAAAGAAGAGCCUAGUAAUAAUGUGAAGCUAGCUGCUACGAAUGCACUCCUGAACUCAUUGGAGUUCACCAAAGCAAACUUUGAUAAAGACAACAGAGGAUUGAGCAUCA
B3: chrX:48915045:48915146:-|CDS|ENSG00000102096|unk|FALSE|unique (ssRNA)
RNA: GGGAGUUCUACAGUCCGACGAUCCCAGCACUGCCAUUCCCGUGGAGUUGUCCAUCGUGACAUCAAGGAUGAGAACAUCCUGAUAGACCUACGCCGUGGCUGUGCCAAACUCAUUGAUUUUGGUUCUGGUGCCCUGCUUCAUGACAACAGAGGAUUGAGCAUCA
B4: ENSG00000071553:stop:overlap|stop_codon|ENSG00000071553|stop_codon|NA|stop_codon (ssRNA)
RNA: GGGAGUUCUACAGUCCGACGAUCCCCCCCAUGACACUGACGCCCAUUCCCCAAGGGAAGCUUCAGUGACCUUGUCCCAACUGUAGGGAGGUGUGGGUCGUCUCAUGGGAAGGCCUGUAGUAAACGCUUCAGUGGGCAUGGCGACAACAGAGGAUUGAGCAUCA
B5: chr19:7961171:7961272:-|3pUTR|ENSG00000066044|msi1|total|mutant (ssRNA)
RNA: GGGAGUUCUACAGUCCGACGAUCGGCGGGAUUCCCGCUUCUGAAACUCCCCCUGGAGUCUCACUCCCACACAUGCCCACCGCCCGCAUUCAACAGAGAACUCUGUCUUAAGCUUCAACUGUGAAAAUGAUGACGGGCUUGCCGCAACAGAGGAUUGAGCAUCA
B6: chr11:214995:215097:+|3pUTR|ENSG00000177963|unk|total|mutant (ssRNA)
RNA: GGGAGUUCUACAGUCCGACGAUCCCUCCUUCCUACUGGUUCCGACUACACUUACAACAAGGAAAAUGCCCCUCGUGUGACCACCGAUUGAGAUUUAUACCACAUACCACACACCGCCACAGAAACAUCAUCUUGAAAUAAAGACAACAGAGGAUUGAGCAUCA

Some of the results follow.

This test has as its target T1, UNK ZnF1-6 (called full-length). The experiment in a line: nsRBNS (natural sequence RNA bind-n-seq); RBNS binding buffer (assumed for nsRBNS): 25 mM Tris pH 7.5, 150 mM KCl, 3 mM MgCl2, 0.01% Triton X-100, 500 ug/ml BSA, 20 U/ml SUPERase-In, 4 C; UNK is unkempt and MSI1 is Musashi-1; names of the RNAs are library labels; protein concentration not given here; high values mean tight binding.
In turn, B1 displayed a binding signal of 0.549 enrichment R.

B2: the binding signal was 1.3 enrichment R.

For the molecule B3, the binding signal was 0.788 enrichment R.

In the case of B4, the binding signal came to 0.844 enrichment R.

Take B5: the binding signal amounted to 0.433 enrichment R.

Molecule B6 displayed a binding signal of 0.61 enrichment R.
